Binding data for three molecules are collected here from article PMC9860685.

Chains of the proteins cited; added tags and fusions are not shown. Lines headed by an entry give the natural chain unless they say otherwise; changes in a name come on top.
UniProt P04792: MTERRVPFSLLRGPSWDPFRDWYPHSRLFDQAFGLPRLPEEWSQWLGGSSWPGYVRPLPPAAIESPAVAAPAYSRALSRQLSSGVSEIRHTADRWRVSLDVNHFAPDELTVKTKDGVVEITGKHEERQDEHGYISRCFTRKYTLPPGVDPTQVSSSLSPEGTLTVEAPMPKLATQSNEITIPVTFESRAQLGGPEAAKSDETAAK
UniProt Q9UBY9: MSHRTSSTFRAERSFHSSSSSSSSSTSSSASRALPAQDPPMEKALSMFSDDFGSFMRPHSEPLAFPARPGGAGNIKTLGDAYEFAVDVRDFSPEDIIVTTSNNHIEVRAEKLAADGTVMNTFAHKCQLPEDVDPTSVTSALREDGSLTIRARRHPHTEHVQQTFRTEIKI

Experiment [1] deals with α-crystallin domain of HspB8 (B8ACD) (human) (UniProt Q9UJY1). As to the kind of experiment: SEC-MALS; Superdex 200 Increase 10/300, 20 mM Tris–HCl pH 7.5, 150 mM NaCl, 3 mM β-mercaptoethanol; 2 mg/mL, 90 µL loaded; both purified.
The target is the same in experiment [2]. Nature of the experiment: SEC; Superdex 75 10/300 GL, 50 mM phosphate pH 7.4, 150 mM NaCl, 2 mM DTT; 25 μL samples of 16–150 μg (25–600 μM per monomer); apparent dissociation constant, dimer to monomers, from a hyperbolic fit of elution volume against the concentration loaded; both purified. (Size exclusion chromatography separates by hydrodynamic size, large species first.)

Experiment [3] has as its target T1, full-length HspB5 (αB-crystallin) (human) (UniProt P02511).
T1 sequence: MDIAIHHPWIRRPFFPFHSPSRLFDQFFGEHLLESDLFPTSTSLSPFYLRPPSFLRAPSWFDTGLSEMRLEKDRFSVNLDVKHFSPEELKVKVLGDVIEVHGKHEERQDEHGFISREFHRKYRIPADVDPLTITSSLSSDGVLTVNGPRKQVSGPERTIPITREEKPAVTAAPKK
As to the kind of experiment: condition: full-length ~19–20 μM, ACD 38–110 μM per monomer; SEC; full-length sHsp (~19–20 μM per monomer) mixed with ACD (38–110 μM per monomer) in buffer B, 30 min at 42 °C; Superdex 200 Increase column in 50 mM phosphate pH 7.4, 150 mM NaCl, 2 mM DTT; fractions analysed by SDS–PAGE; both ….

Experiment [4] concerns the target 3D mutant of HspB1 (S15D, S78D, S82D) (human) (UniProt P04792). The experiment is described as above.
In experiment [5] the target is full-length HspB1 (human) (UniProt P04792). The description is as above.
The target in experiment [6] is T2, full-length HspB6 (human) (UniProt O14558).
T2 sequence: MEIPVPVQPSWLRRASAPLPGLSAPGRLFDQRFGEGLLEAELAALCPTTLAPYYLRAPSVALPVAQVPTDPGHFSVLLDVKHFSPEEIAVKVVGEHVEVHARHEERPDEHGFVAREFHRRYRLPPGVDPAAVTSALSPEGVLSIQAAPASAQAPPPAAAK
As to the kind of experiment: native gel or EMSA; clear native PAGE, 12.5% gel, 80 mM glycine–Tris pH 8.6; sHsp 5–6 μM per monomer mixed with ACD 20–24 μM per monomer, 30 min at 25 °C in buffer B; Western blot with anti-HspB6 for the complexes of HspB6; both purified. A general note: Mobility shift assays separate free from complexed probe on a gel.

In experiment [7] the target is full-length HspB7 (human) (UniProt Q9UBY9). Described as above.
The target of experiment [8] is T1, full-length HspB5 (αB-crystallin) (human). As to the kind of experiment: SEC; full-length sHsp (~19–20 μM per monomer) mixed with ACD (38–110 μM per monomer) in buffer B, 30 min at 42 °C; Superdex 200 Increase column in 50 mM phosphate pH 7.4, 150 mM NaCl, 2 mM DTT; fractions analysed by SDS–PAGE; both purified.
For experiment [9], the target named is full-length HspB1 (human) (UniProt P04792). Described as above.
Experiment [10] concerns the target T3, full-length HspB8 (human) (UniProt Q9UJY1).
T3 sequence: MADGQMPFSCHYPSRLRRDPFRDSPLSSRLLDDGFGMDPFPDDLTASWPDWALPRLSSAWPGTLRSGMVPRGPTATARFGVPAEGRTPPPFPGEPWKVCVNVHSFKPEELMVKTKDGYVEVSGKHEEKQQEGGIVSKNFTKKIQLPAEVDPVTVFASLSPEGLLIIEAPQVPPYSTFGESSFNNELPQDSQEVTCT
Nature of the experiment: native gel or EMSA; clear native PAGE, 12.5% gel, 80 mM glycine–Tris pH 8.6; sHsp 5–6 μM per monomer mixed with ACD 20–24 μM per monomer, 30 min at 25 °C in buffer B; Western blot with anti-HspB6 for the complexes of HspB6; both purified.

These are yes or no findings as the source states them, for the method shown. Some entries that bind do so weakly or less than the wild type.

B1: α-crystallin domain of HspB8 (B8ACD) (domain or fragment, UniProt Q9UJY1 85-171)
chain: GRTPPPFPGEPWKVCVNVHSFKPEELMVKTKDGYVEVSGKHEEKQQEGGIVSKNFTKKIQLPAEVDPVTVFASLSPEGLLIIEAPQV
Turning to B1, the binding result in [1] is “no binding (tested: 2 mg/mL)”; in experiment [2], “no binding (tested: 25–600 μM per monomer)”; in experiment [3], “no binding”; in [4], “no binding”; in experiment [5] it was “no binding”; in experiment [6], “no binding (tested: sHsp 5–6 μM, ACD 20–24 μM per monomer)”. Moreover, the binding entry in [7] was “no binding (tested: sHsp 5–6 μM, ACD 20–24 μM per monomer)”.

B2: α-crystallin domain of HspB6 (B6ACD) (domain or fragment, UniProt O14558 64-149)
chain: VAQVPTDPGHFSVLLDVKHFSPEEIAVKVVGEHVEVHARHEERPDEHGFVAREFHRRYRLPPGVDPAAVTSALSPEGVLSIQAAPA
Turning to B2, the binding result is given as “binds weakly” in experiment [8]; “binds weakly” in experiment [9]; “no binding (tested: sHsp 5–6 μM, ACD 20–24 μM per monomer)” in experiment [7]; “no binding (tested: sHsp 5–6 μM, ACD 20–24 μM per monomer)” in [10].

B3: α-crystallin domain of HspB5 (B5ACD) (domain or fragment, UniProt P02511 64-150)
chain: GLSEMRLEKDRFSVNLDVKHFSPEELKVKVLGDVIEVHGKHEERQDEHGFISREFHRKYRIPADVDPLTITSSLSSDGVLTVNGPRK
Turning to B3, the binding result in experiment [8] and in experiment [9] was “binds weakly” throughout.
